Data published in PMC4336329 (PLoS ONE, 2015).
The campaign covered roughly 310,000 compounds. About 14,000 (4.5%) showed an effect of 50% or more. Effects have a minus sign here. The list shows a part of the results.

Target: human ether-à-go-go-related gene (hERG) potassium channel (human, UniProt Q12809)
Experiment: primary screen, population patch clamp on CHO cells stably expressing hERG
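Note: peak tail current of the secondary pulse compared with the same well before compound.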

human ether-à-go-go-related gene (hERG) potassium channel, sequence (Q12809 whole entry, looked up): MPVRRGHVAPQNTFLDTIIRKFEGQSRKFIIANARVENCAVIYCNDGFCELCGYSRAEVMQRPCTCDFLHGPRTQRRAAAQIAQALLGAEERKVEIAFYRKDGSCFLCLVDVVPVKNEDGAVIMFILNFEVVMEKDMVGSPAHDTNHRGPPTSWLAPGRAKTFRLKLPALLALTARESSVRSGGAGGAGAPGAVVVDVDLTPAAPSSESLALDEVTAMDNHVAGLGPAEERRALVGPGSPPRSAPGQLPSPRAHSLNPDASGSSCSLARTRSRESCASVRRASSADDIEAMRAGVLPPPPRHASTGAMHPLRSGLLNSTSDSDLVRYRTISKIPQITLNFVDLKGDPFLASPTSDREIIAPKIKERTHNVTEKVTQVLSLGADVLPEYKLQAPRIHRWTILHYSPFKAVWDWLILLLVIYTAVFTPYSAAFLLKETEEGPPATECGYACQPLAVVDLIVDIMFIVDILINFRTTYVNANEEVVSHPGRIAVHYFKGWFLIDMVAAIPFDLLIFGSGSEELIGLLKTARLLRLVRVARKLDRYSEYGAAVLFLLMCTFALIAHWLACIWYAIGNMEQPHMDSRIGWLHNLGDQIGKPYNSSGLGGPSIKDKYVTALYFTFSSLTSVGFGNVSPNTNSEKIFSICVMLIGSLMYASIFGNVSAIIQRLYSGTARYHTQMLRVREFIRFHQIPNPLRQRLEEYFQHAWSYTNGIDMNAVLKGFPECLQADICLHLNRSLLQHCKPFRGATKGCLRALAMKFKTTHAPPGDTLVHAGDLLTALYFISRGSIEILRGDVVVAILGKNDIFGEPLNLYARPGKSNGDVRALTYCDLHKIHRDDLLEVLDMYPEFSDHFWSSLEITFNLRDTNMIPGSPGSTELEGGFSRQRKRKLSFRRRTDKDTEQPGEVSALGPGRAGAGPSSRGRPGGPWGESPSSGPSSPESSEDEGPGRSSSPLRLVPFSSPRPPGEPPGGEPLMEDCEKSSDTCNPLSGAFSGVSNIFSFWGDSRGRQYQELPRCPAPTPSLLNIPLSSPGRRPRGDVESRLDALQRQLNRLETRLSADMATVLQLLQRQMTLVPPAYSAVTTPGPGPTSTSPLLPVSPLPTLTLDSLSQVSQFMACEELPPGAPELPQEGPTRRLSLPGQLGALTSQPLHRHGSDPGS

Row | Compound | hERG current change (%, negative = inhibition) at 10uM [%]
1 | CC(C)[C@H](NC(=O)c1ccccc1)C(=O)OCC(=O)N1CCCCCC1 | 6.63
2 | CCN(CC)C(=O)C1CCCN(C(=O)Nc2ccc3nsnc3c2)C1 (stereo not shown) | 0.262
3 | COc1ccc(CNC(=O)NCc2ccc(OC)c(OC)c2)cc1OC | 13.4
4 | CN(C)CC1CCCCC1OC(=O)c1ccc(Cl)c(Cl)c1.Cl (stereo not shown) | -52.1
5 | O=C(NCCCN1CCCC1=O)C1CCN(S(=O)(=O)c2ccc(F)cc2)CC1 | 2.75
6 | Cc1nnc(NC(=O)CSc2nnc(Cc3cccn3C)n2-c2cccc(C)c2C)s1 | 6.15
7 | Cc1cc(=O)[nH]c(SCC(=O)Nc2nc3ccccc3s2)n1 | 19.2
8 | COC(=O)c1ccc(COc2ccc(C)cc2[N+](=O)[O-])o1 | -8.36
9 | O=C(NCC1CCCO1)C1CCCN(S(=O)(=O)c2cc(Cl)ccc2Cl)C1 (stereo not shown) | -2.53
10 | Cc1nc2cc(-c3sccc3-n3cccc3)nn2c(C)c1C | -7.45
11 | CCC(=O)c1cn(CC(=O)Nc2cccc(OC)c2)c2ccccc12 | 23.3
12 | Cn1c(SCC(=O)N2CCOCC2)nnc1-c1ccncc1 | 16.3
13 | CSCC[C@H](NC(=O)Cc1c(C)c2c(cc(C)c3c(C)coc32)oc1=O)C(=O)O | 10.3
14 | Cc1ccc(NC(=O)Cn2nc(C(=O)Nc3ccc(C)cc3)ccc2=O)cc1 | 10.8
15 | CN(C)C(=O)c1snnc1-c1ccccc1 | 5.45
16 | Cc1ccc(Nc2nc(-c3cccs3)cs2)nc1 | 8.89
17 | CCOc1cc(CNc2ccc3[nH]c(=O)[nH]c3c2)ccc1OCC(=O)NC(C)(C)C | 12.4
18 | CC(C)(C)C(=O)OCC1OC(n2cnc(C(N)=O)n2)C(O)C1O (stereo not shown) | 19.8
19 | CCOc1ccc2[nH]c(=O)c(CN(CCO)C3(c4nnnn4C4CCCCC4)CCCCC3)cc2c1 | -7.71
20 | C#CCOCCOCCOCCNc1nc(N2CCN(C(=O)Cn3cc(CCC[NH+]=C(N)N)nn3)CC2)nc(N2CCN(C(=O)[C@H]([C@@H](C)O)n3cc(CCCC[NH3+])nn3)CC2)n1.[Cl-] | 4.41
21 | COc1ccc(SC[C@H](CC(C)C)N2CCN(CCc3ccccc3)CCC2=O)cc1 | -71.3
22 | C=CCn1nc2ccccc2c1OCCO | 19
23 | CCNc1nc(NCC)nc(OCCOC(=O)Nc2ccccc2)n1 | -0.811

Row | Compound | hERG current change (%, negative = inhibition) at 10uM [%]
24 | Cc1cc2c(c(N3CCOCC3)n1)C(=O)OC2 | 11.5
25 | Cc1cc(Cl)c2oc(C(=O)N(C)CCCN3CCOCC3)c(C)c2c1 | -42.9
26 | O=C(NCc1ccc2c(c1)OCO2)c1ccccc1 | -4.18
27 | COc1cc(NC(=O)CCNC(=O)Cn2ccc3ccccc3c2=O)cc(OC)c1OC | 18.1
28 | COc1ccccc1C(=O)C1CCCN(C(=O)CCn2cnnn2)C1 (stereo not shown) | 0.341
29 | FC(F)(F)c1cccc(Cn2cnc(NC(=S)NCCc3ccccc3)n2)c1 | 7.89
30 | CCC(=O)N1C(C(=O)N2CCCC2)CSC1c1ccc(OC)cc1 (stereo not shown) | -7.14
31 | Cc1nc(NC(=O)c2ccc(Cl)cc2)sc1-c1csc(Nc2cccc(F)c2)n1 | 14.7
32 | CCN(CC)CCn1c(C)nc2c(sc3nc4c(cc32)COC(C)(C)C4)c1=O | -22.3
33 | Cc1ccnc2c(N3C(=O)C4C5C=CC(C5)C4C3=O)cccc12 (stereo not shown) | -2.15
34 | CNC(=O)N1c2ccccc2C=Cc2ccccc21 | 20.1
35 | Cc1ccc2c(c1)CC1(CN2C)C(=O)OC2(CCCCC2)OC1=O | 13.4
36 | COC(c1ccccc1)c1nnc(CCC(=O)N2CCCCCCC2)o1 (stereo not shown) | 1.16
37 | COc1cccc(-c2nnc(NC(=O)c3ccco3)s2)c1 | 12.4
38 | O=C(O)c1ccc(/C=N/Nc2ncc(C(F)(F)F)cc2Cl)cc1 | 3.54
39 | CC(=O)Nc1sc(-c2ccc(Cl)cc2)nc1-c1ccccc1 | 0.844
40 | O=C(COC(=O)Cn1cnc2ccccc21)NCCC1=CCCCC1 | 2.52
41 | CCCN1C2CCCC1CC(NC(=O)c1cccc(Cl)c1)C2 (stereo not shown) | -38.9
42 | O=C(CN1CCSCC1)N/N=C/c1ccc(F)cc1F | -6.43
43 | CCOC(=O)CC12CN3CN(C1)CC(CC(=O)OCC)(C3)C2=O | 8.62
44 | CCOCCCNC(=O)Cc1ccc(F)cc1 | 7.62
45 | COC(=O)c1ccc(CN2CCN(CC(C)C)C(CCO)C2)cc1 (stereo not shown) | -3.11
46 | CCOC(=O)/C(C#N)=C1/CCCCCN1C | 1.48

Row | Compound | hERG current change (%, negative = inhibition) at 10uM [%]
47 | CCc1ccc(C(=O)CN2C(=O)NC3(CCc4ccccc43)C2=O)cc1 (stereo not shown) | -22.5
48 | CCCN1Cc2cccc(C(=O)NC3CCCC3)c2C1=O | -18.9
49 | Cc1ccc(NS(=O)(=O)c2c(C)[nH]c(C)c2C(=O)N2CCCC2)cc1 | 15.9
50 | O=C(CN(C(=O)CCC(=O)Nc1nccs1)c1ccc2c(c1)OCO2)NCc1ccccc1 | 15.3
51 | O=C(Nc1ccccc1C(=O)Nc1ccccc1)c1cccs1 | -0.413
52 | Cc1cc(C)c2c(N)c(C(=O)NCC3CCCCC3)sc2n1 | 6.61
53 | CCOC(=O)N1CCc2c(sc3ncn(C)c(=O)c23)C1 | 5.05
54 | Cc1cccc2nc(CSc3ccc(Cl)cc3)cn12 | -74.3
55 | Cc1ccc(OCC(=O)NNC(=O)c2cc3ccccc3o2)cc1 | -0.251
56 | CC(C)Cn1c(CCNC(=O)c2ccco2)nc2ccccc21 | -1.3
57 | CCOC(=O)c1c(-c2ccc(C)cc2)csc1NC(=O)c1cccc(N2C(=O)CCC2=O)c1 | 0.102
58 | Cc1ccc(C2=NC(C)(C)N=C2SCC(=O)Nc2ccc(Cl)cc2)cc1 | -13.9
59 | Cc1ccc(N2CCN(S(=O)(=O)c3ccc(-n4cnnn4)cc3)CC2)c(C)c1 | 11.7
60 | CCN(C(=O)CSc1ncnc2sc(C)c(C)c12)C1CCS(=O)(=O)C1 (stereo not shown) | -42.7
61 | COc1ccc(OC)c(Nc2ncnc3sccc23)c1 | -0.251
62 | O=C(CSc1ncnc2c1cnn2-c1ccccc1Cl)N1CCN(C(=O)c2ccco2)CC1 | -65.7
63 | O=C(Nc1ccc(S(=O)(=O)N2CCCC2)cc1)c1ccc(Cl)nc1 | -5.58
64 | CCCOC(=O)C(C)n1c(-c2ccccc2)nc2ccccc2c1=O (stereo not shown) | -5.65
65 | Cn1c(=O)c2c(nc(NNC(=O)C(F)(F)F)n2C)n(C)c1=O | 15
66 | CCc1c(C2(O)CCCCC2)[nH]c2ccc(C#N)cc12 | 6.95
67 | COc1ccc(CCNS(=O)(=O)c2ccc3c(c2)oc(=O)n3C)cc1OC | 7
68 | Cc1ccc(S(=O)(=O)Nc2ccccc2CNC2CCCCC2)cc1 | -5.36
69 | Cc1cccc(C)c1NC(=O)NC1(C(=O)NCc2ccncc2)CCCCC1 | 11

Row | Compound | hERG current change (%, negative = inhibition) at 10uM [%]
70 | CCNc1nc(Oc2ccc(=O)[nH]n2)nc(N2CCOCC2)n1 | 21.9
71 | CN1CCC(C)(O)C2CCCCC21 (stereo not shown) | 0.314
72 | O=C(NCc1ccc(Cl)cc1Cl)c1ccc2nc[nH]c2c1 | -5.75
73 | C=C(C)COc1ccc(-c2n[nH]c(C)c2Oc2ccccc2OC)c(O)c1 | -5.79
74 | CN(/N=C/c1ccncc1)c1cnc2ccccc2n1 | 19.3
75 | CC(=O)CSc1nnc(-c2ccc(S(=O)(=O)N3CCCC3)cc2)n1C | 15.3
76 | CN(C)S(=O)(=O)c1cc(C(=O)NCc2ccccc2)c(Cl)cc1Cl | -14.4
77 | O=c1[nH]c2ccc(S(=O)(=O)N3CCN(c4ccc(F)cc4)CC3)cc2o1 | -22.9
78 | CC(=O)c1ccc(N(CC(=O)NC2CCCCC2)C(=O)CNC(=O)c2cccs2)cc1 | -12.3
79 | NC(=O)C1CNc2ccccc2O1 (stereo not shown) | -0.67
80 | O=C(N/N=C/c1ccccn1)c1cc(-c2ccncc2)nc2ccccc12 | -13.6
81 | Cc1ccc(C2Nc3ccccc3C(=O)N2CCN2CCNC2=O)cc1 (stereo not shown) | -11.7
82 | O=c1c2nnn(-c3cccc(F)c3)c2ncn1Cc1ccccn1 | -15.3
83 | CCOC(=O)/C=C1\SCC(=O)N1CC(=O)NCc1cccc(Cl)c1 | -18.6
84 | COc1ccc(NC(=O)Cn2c3ccccc3c3nc4n(c(=O)c32)CCS4)cc1 | 7.66
85 | Clc1ccccc1CN1CCN(/N=C/C=C\c2ccco2)CC1 | -13
86 | Cc1ccc(Cn2nnc3c(=O)n(CC(=O)NCc4ccccc4)cnc32)cc1 | 6.5
87 | CC(=O)Nc1cccc(OCC(=O)Nc2ccccc2)c1 | 12.3
88 | c1ccc(-c2ccc(-c3cnc4n3CCCCC4)cc2)cc1 | -21.8
89 | Cc1ccc(NC(=O)C2CC(=O)N/C(=N/NC(=O)c3ccc(C)cc3)S2)cc1 (stereo not shown) | 4.9
90 | O=C(O)CCC(=O)OCC1CCCCC1 | 3.3
91 | CCOc1ccccc1CN1CCNC(=O)C1CC(=O)N(C)C1CCOCC1 (stereo not shown) | 17.5
